Data reported in the BET-seq Pho4 binding data (Le et al. 2018).
Some of the results follow. Values were computed here from the reads of four pooled replicates and scatter widely.

target: T1, Pho4 (S. cerevisiae) (UniProt P07270); assay: relative binding free energy (BET-seq); higher = weaker binding; conditions: reference: library average
T1 sequence: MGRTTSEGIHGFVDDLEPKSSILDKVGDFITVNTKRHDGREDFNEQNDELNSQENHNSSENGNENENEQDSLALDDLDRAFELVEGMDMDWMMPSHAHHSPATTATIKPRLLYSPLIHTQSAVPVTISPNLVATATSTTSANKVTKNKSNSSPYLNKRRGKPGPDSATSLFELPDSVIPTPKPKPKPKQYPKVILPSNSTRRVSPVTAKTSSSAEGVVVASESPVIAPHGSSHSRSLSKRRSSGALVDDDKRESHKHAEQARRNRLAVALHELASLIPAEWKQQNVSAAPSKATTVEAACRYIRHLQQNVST

Sequence | relative binding free energy [kcal/mol]
AAAGGCACGTGGATGT | -0.06
TTTTGCACGTGAGTTA | 0.24
TGCTGCACGTGCTGGG | 0.02
GTGGCCACGTGTTTTG | 0.1
TGGTACACGTGGGGAC | 0
CGCGACACGTGGTGGT | -0.1
TTGCGCACGTGAGTAT | 0.19
GAAGTCACGTGGAATG | 0.18
AGTAGCACGTGTGGTG | -0.1
TTTGCCACGTGGGTGT | -0.15
TTACGCACGTGAGGGT | 0
GGTGTCACGTGCTGCG | -0.11
CGTTGCACGTGTGCGG | 0.01
TGAAACACGTGTCGGA | 0.19
AGTATCACGTGTGCGG | 0.2
CTTTACACGTGGCCGT | 0.24
CCGGGCACGTGTGTTG | -0.01
GCGATCACGTGGTAGG | 0.11
GGTAACACGTGAGTAG | 0.15
GAATTCACGTGTGGGA | 0.36
CAGAGCACGTGGGTAG | -0.2
ATAGACACGTGGAGGT | -0.12
TTGAACACGTGTGCAG | 0.02

Sequence | relative binding free energy [kcal/mol]
GGAGCCACGTGTTTTG | 0
TGTGACACGTGGATAG | -0.05
GGCTTCACGTGAGCGG | 0.22
TTCCTCACGTGGGAGG | 0.23
GGTGACACGTGACTTT | 0.2
TGGGTCACGTGACGTT | 0.25
GGGACCACGTGTTAGG | 0
CGGCTCACGTGTGGGG | 0.23
TGGGACACGTGGCGGT | -0.08
GGGTGCACGTGTCCGG | -0.16
CTTGTCACGTGTCAGG | 0.17
CTGTTCACGTGATCGT | 0.33
GACGGCACGTGGGTGT | -0.2
GTTTACACGTGGGATT | 0.13
TATGGCACGTGGGTGT | -0.28
ATTCTCACGTGATTTT | 0.33
ATAGTCACGTGAGAAT | 0.29
AGGGTCACGTGCATAG | 0.07
TGAATCACGTGGGCAG | 0
ATGAACACGTGGAGGA | 0.12
CGTTTCACGTGTCGGG | 0.3
AGCTTCACGTGTTTGT | 0.34
TGAGGCACGTGTTGTA | -0.15

Sequence | relative binding free energy [kcal/mol]
AAGTACACGTGTGGGT | 0.18
AGAAGCACGTGGTGAA | 0.01
GCTGGCACGTGGTCGT | -0.18
GGCGGCACGTGATTAG | 0.08
TGTTACACGTGGGCAG | 0.03
CTACTCACGTGTTGTG | 0.17
TAATTCACGTGGGTTC | 0.25
ATTGGCACGTGTGTGA | -0.07
CTGTTCACGTGAGTGG | 0.36
AGATTCACGTGACTTG | 0.46
GTAGGCACGTGAGGCA | 0.14
TGGTTCACGTGCGATT | 0.25
GTAGACACGTGGAAGG | 0.08
TGTTCCACGTGAGGAT | 0.37
ATCGCCACGTGTAGGT | 0.09
AGTAACACGTGGAGGA | -0.07
AGGGTCACGTGGTCAT | -0.05
GCCTGCACGTGAGGGT | 0.19
AAGGGCACGTGATGAG | -0.06
TTGTCCACGTGATTGG | 0.15
CATGTCACGTGGGAGG | -0.01
ATTTTCACGTGTTCTC | 0.32
GTTGCCACGTGTAAGG | 0.12

Sequence | relative binding free energy [kcal/mol]
AGGGGCACGTGTCTTG | -0.15
TGACGCACGTGGGCGG | -0.32
CGTAGCACGTGTGGAT | -0.11
TTTATCACGTGGTACT | -0.03
TAAGGCACGTGAATGG | 0.11
GGGGGCACGTGGGAGG | -0.23
TTTGTCACGTGAACTG | 0.25
GGCAACACGTGGTGGA | 0.03
GGGAGCACGTGGAGAT | -0.11
GGTAACACGTGGATTT | 0.06
GTCTTCACGTGTATGT | 0.38
GAAGCCACGTGTGGTG | -0.01
GGTGGCACGTGGGCAA | -0.48
GTTGGCACGTGACGTA | -0.08
TGTTTCACGTGCCTTG | 0.31
TGCTACACGTGTGGTT | 0.14
CTTGGCACGTGAGGTA | 0.11
CTGGGCACGTGTATAT | -0.03
ATGAGCACGTGGCGGT | -0.05
TTCTACACGTGGTTTA | 0.13
GGAGGCACGTGGTGTA | -0.22
GATGGCACGTGGGTCT | -0.18
ATAGTCACGTGTACGT | 0.1

Sequence | relative binding free energy [kcal/mol]
GGCTTCACGTGTAGGC | 0.35
TCATGCACGTGGGGTA | -0.26
ATGTACACGTGTAATA | 0.11
GGTATCACGTGTAATA | 0.16
TTATCCACGTGGGTGT | -0.14
TCGTTCACGTGTGTAA | 0.2
GTAGTCACGTGACGTT | 0.26
TGAATCACGTGTCGAT | 0.35
TAATACACGTGGAGTT | -0.02
ATGTGCACGTGGCGCA | -0.15
GATGTCACGTGTGTAG | 0.17
CTAGCCACGTGGGGGG | -0.37
TTAGCCACGTGAGAGT | 0.09
GGGTACACGTGAAGTT | 0.29
ATGGTCACGTGATCGT | 0.14
TGGTGCACGTGCTGGC | -0.21
TGTTGCACGTGAAATA | 0.2
GAGAACACGTGGCGGG | 0.05
TTGTCCACGTGGGTGT | -0.08
ATTTACACGTGGTCGT | 0
GCTGTCACGTGTGTAT | 0.23
ATTCTCACGTGTGGGA | 0.18
TGGTTCACGTGGTCTC | 0.31
